Assay results: article PMC11995724, “Antibiotic target discovery by integrated phenotypic and activity-based profiling of electrophilic fragments” (Cell chemical biology, 2025)
In all, about 3,200 compounds went through this assay and about 110 (3.4%) showed an effect of 50% or more. The list shows a part of the results.

tested on: T1, V. cholerae SAD30; set-up: species or system S. aureus MSSA476 (TSB) or V. cholerae SAD30 (LB); 384-well bacterial growth screen at 25 uM, OD600 relative to DMSO control; conditions: relative growth, OD600, LB; 25 µM; inhibitor
T1 construct: SAD30

Structure (SMILES)	% of control remaining [%]
C=CC(=O)NCc1ccc(C(=O)N2CCN(c3nc(C)n[nH]3)CC2)cc1 [2-F22, N-({4-[4-(3-methyl-1H-1,2,4-triazol-5-yl)piperazine-1-carbonyl]phenyl}methyl)prop-2-enamide]	111.657
O=C(CCl)NC1CN(c2ccc(C(F)(F)F)cc2)C1 [7-J06, 2-chloro-N-{1-[4-(trifluoromethyl)phenyl]azetidin-3-yl}acetamide]	90.5336
CCn1cc(N2C(=O)C=CC2=O)cn1 [10-I21, 1-(1-ethyl-1H-pyrazol-4-yl)-2,5-dihydro-1H-pyrrole-2,5-dione]	56.731
CC(Cl)C(=O)N1CCN(Cc2ccc3ccccc3n2)CC1 (centres unmarked) [7-A15, 2-chloro-1-{4-[(quinolin-2-yl)methyl]piperazin-1-yl}propan-1-one]	80.0925
C=CC(=O)NC1(c2nc(C3CC3)cc(=O)[nH]2)CCCCC1 [3-H13, N-[1-(4-cyclopropyl-6-oxo-1,6-dihydropyrimidin-2-yl)cyclohexyl]prop-2-enamide]	88.7374
C=CC(=O)N(Cc1cccc2cccnc12)C1CCCN(CC)C1 (centres unmarked) [1-H11, N-(1-ethylpiperidin-3-yl)-N-[(quinolin-8-yl)methyl]prop-2-enamide]	85.2018
O=C(CCl)NC1CCC2(CCC1(F)F)OCCO2 (centres unmarked) [5-G09, 2-chloro-N-{9,9-difluoro-1,4-dioxaspiro[4.6]undecan-8-yl}acetamide]	99.5272
O=C(CCl)Nc1cc(C2CCCC2)nn1-c1ccccc1 [4-J03, 2-chloro-N-(3-cyclopentyl-1-phenyl-1H-pyrazol-5-yl)acetamide]	120.423
CN(C)c1ccc(C=C(C#N)C(=O)Nc2ccccc2C(=O)O)cc1 [9-I08, 2-{2-cyano-3-[4-(dimethylamino)phenyl]prop-2-enamido}benzoic acid]	78.3821
N#CC(=Cc1c(Cl)cccc1Cl)C(=O)NCc1ccco1 [9-K06, 2-cyano-3-(2,6-dichlorophenyl)-N-[(furan-2-yl)methyl]prop-2-enamide]	82.189
CCCCNC(=O)C(C#N)=Cc1c[nH]nn1 [9-L04, N-butyl-2-cyano-3-(1H-1,2,3-triazol-4-yl)prop-2-enamide]	92.6581
CC(C)NC(=O)C(C#N)=Cc1ccc(OC(C)C)cc1 [8-G12, 2-cyano-N-(propan-2-yl)-3-[4-(propan-2-yloxy)phenyl]prop-2-enamide]	74.983
CC(Cl)C(=O)NC(=O)NCc1ccccc1 (centres unmarked) [6-P06, 1-benzyl-3-(2-chloropropanoyl)urea]	102.228
C=CC(=O)N1CCC(C(=O)Nc2n[nH]c3cc(C#N)c(C)cc23)CC1 [3-J18, N-(6-cyano-5-methyl-1H-indazol-3-yl)-1-(prop-2-enoyl)piperidine-4-carboxamide]	89.2667
CCCCNC(=O)C(C#N)=Cc1cc(C)cc(C)c1 [9-C03, N-butyl-2-cyano-3-(3,5-dimethylphenyl)prop-2-enamide]	104.623
C=CC(=O)N(C)[C@H]1CS(=O)(=O)C[C@@H]1O (racemic) [3-C15, rac-N-[(3R,4R)-4-hydroxy-1,1-dioxo-1lambda6-thiolan-3-yl]-N-methylprop-2-enamide]	105.852
COc1ccc(C=C(C#N)C(=O)Nc2ccc(Cl)cc2Cl)cc1 [8-K03, 2-cyano-N-(2,4-dichlorophenyl)-3-(4-methoxyphenyl)prop-2-enamide]	80.5574
O=C1C=CC(=O)N1c1cccc(O)c1 [10-O07, 1-(3-hydroxyphenyl)-2,5-dihydro-1H-pyrrole-2,5-dione]	26.4952
O=C(CCl)N1N=C(c2ccc3ccccc3c2)CC1c1ccccc1 (centres unmarked) [4-K22, 2-chloro-1-[3-(naphthalen-2-yl)-5-phenyl-4,5-dihydro-1H-pyrazol-1-yl]ethan-1-one]	112.659
O=C1C=CC(=O)N1c1ccccc1Sc1ccc(Cl)cc1 [10-A03, 1-{2-[(4-chlorophenyl)sulfanyl]phenyl}-2,5-dihydro-1H-pyrrole-2,5-dione]	28.6772
O=C(CCl)NCc1ccccc1OC(F)(F)F [4-L21, 2-chloro-N-{[2-(trifluoromethoxy)phenyl]methyl}acetamide]	110.416
C=CC(=O)NCC1CCCc2nccn21 (centres unmarked) [2-B15, N-({5H,6H,7H,8H-imidazo[1,2-a]pyridin-5-yl}methyl)prop-2-enamide]	93.2838

Structure (SMILES)	% of control remaining [%]
O=C(CCl)Nc1ccccc1Sc1ccc(Cl)cc1 [4-O13, 2-chloro-N-{2-[(4-chlorophenyl)sulfanyl]phenyl}acetamide]	72.9782
C=CC(=O)NCc1nnc(C2CCOCC2)[nH]1 [2-M22, N-{[5-(oxan-4-yl)-4H-1,2,4-triazol-3-yl]methyl}prop-2-enamide]	103.32
Cc1cc(C(=O)CCl)c(C)n1-c1ccc(Cl)c(C(F)(F)F)c1 [10-L18, 2-chloro-1-{1-[4-chloro-3-(trifluoromethyl)phenyl]-2,5-dimethyl-1H-pyrrol-3-yl}ethan-1-one]	92.2657
CCCCNC(=O)C(C#N)=Cc1c(Cl)cccc1Cl [9-J11, N-butyl-2-cyano-3-(2,6-dichlorophenyl)prop-2-enamide]	75.5269
N#CC(=Cc1cc(F)ccc1F)C(=O)Nc1ccc2c(c1)OCCO2 [8-I10, 2-cyano-3-(2,5-difluorophenyl)-N-(2,3-dihydro-1,4-benzodioxin-6-yl)prop-2-enamide]	69.4086
C=CCNC(=O)C(C#N)=Cc1cnn(-c2ccc(Cl)cc2)c1 [9-M16, 3-[1-(4-chlorophenyl)-1H-pyrazol-4-yl]-2-cyano-N-(prop-2-en-1-yl)prop-2-enamide]	88.1713
Cn1c(=O)oc2cc(C(=O)CCl)ccc21 [10-F07, 6-(2-chloroacetyl)-3-methyl-2,3-dihydro-1,3-benzoxazol-2-one]	44.886
Cn1c(N)c(C(=O)CCl)c(=O)[nH]c1=O [10-I16, 6-amino-5-(2-chloroacetyl)-1-methyl-1,2,3,4-tetrahydropyrimidine-2,4-dione]	105.513
N#CC(=Cc1sc2ccccc2c1Cl)C(=O)NC1CC1 [9-C18, 3-(3-chloro-1-benzothiophen-2-yl)-2-cyano-N-cyclopropylprop-2-enamide]	72.8076
CC(Cl)C(=O)Nc1ccc2oc(=O)n(CCN(C)C)c2c1 (centres unmarked) [5-L19, 2-chloro-N-{3-[2-(dimethylamino)ethyl]-2-oxo-2,3-dihydro-1,3-benzoxazol-5-yl}propanamide]	98.0141
CN(CC(=O)Nc1ccccc1Cl)C(=O)CCl [4-D05, 2-chloro-N-{[(2-chlorophenyl)carbamoyl]methyl}-N-methylacetamide]	105.413
CSc1ccc(C=C(C#N)C(=O)Nc2c(C)cc(C)cc2C)cc1 [8-G15, 2-cyano-3-[4-(methylsulfanyl)phenyl]-N-(2,4,6-trimethylphenyl)prop-2-enamide]	74.1672
CC(=O)c1ccc(S(=O)(=O)N2CCN(C(=O)CCl)CC2)cc1 [5-P16, 1-[4-(4-acetylbenzenesulfonyl)piperazin-1-yl]-2-chloroethan-1-one]	98.8547
O=C1C=CC(=O)N1c1ccc(OC(F)(F)F)cc1 [10-J19, 1-[4-(trifluoromethoxy)phenyl]-2,5-dihydro-1H-pyrrole-2,5-dione]	30.0799
N#CC(=Cc1ccc(F)cc1)C(=O)Nc1cccc2ncccc12 [9-C21, 2-cyano-3-(4-fluorophenyl)-N-(quinolin-5-yl)prop-2-enamide]	89.9388
N#CC(C(=O)N1CCCCC1)=C1N=C(N)c2ccccc21 [9-A21, 2-(3-amino-1H-isoindol-1-ylidene)-3-oxo-3-(piperidin-1-yl)propanenitrile]	85.86
CC(=O)NCCc1cc(C(=O)CCl)ccc1F [10-O05, N-{2-[5-(2-chloroacetyl)-2-fluorophenyl]ethyl}acetamide]	118.138
O=C(CCl)NCCC1CCCC1(F)F (centres unmarked) [7-P04, 2-chloro-N-[2-(2,2-difluorocyclopentyl)ethyl]acetamide]	89.8728
C=CC(=O)N1CCC(C(=O)NCc2ncc(N(C)C)cn2)CC1 [3-L03, N-{[5-(dimethylamino)pyrimidin-2-yl]methyl}-1-(prop-2-enoyl)piperidine-4-carboxamide]	104.793
C=CC(=O)NC(c1ccc(F)cc1)c1ccccn1 (centres unmarked) [3-N14, N-[(4-fluorophenyl)(pyridin-2-yl)methyl]prop-2-enamide]	101.617
N#CC(=Cc1csc2ccccc12)C(=O)NCc1ccco1 [9-D16, 3-(1-benzothiophen-3-yl)-2-cyano-N-[(furan-2-yl)methyl]prop-2-enamide]	79.6057
CC(NC(=O)C(C#N)=Cc1cccc(Cl)c1Cl)c1ccccc1 (centres unmarked) [9-N04, 2-cyano-3-(2,3-dichlorophenyl)-N-(1-phenylethyl)prop-2-enamide]	92.3861
